Test results as given in article PMC5287491.
Results are given in words; binding and its absence hold for the method and conditions named. In cells and extracts the contact can be indirect. Some results given as binding are weak or reduced against the parent protein; the word gives no strength.

Columns and labels:
Assay in all cases: co-IP
[1] = target: HPV8 FLAG/HA-E6 (lentiviral, stably expressed in human keratinocytes) (human papillomavirus 8 (HPV8)) (UniProt P06428)
[2] = target: FLAG/HA-tagged wild type HPV8 E6 (pCMV BamNeo, U2OS) (human papillomavirus 8 (HPV8)) (UniProt P06428)
FLAG-tagged SMAD2 = FLAG-tagged SMAD2 (UniProt Q15796)
FLAG-tagged SMAD3 = FLAG-tagged SMAD3 (UniProt P84022)

For EP300 (from UniProt Q09472 1-2414), the binding [1] was “binds” and the binding [2] was “binds”.
For MAML1 (from UniProt Q92585 1-1016), the binding [1] was “binds” and the binding [2] was “binds”.
SMAD2 (from UniProt Q15796 1-467) was tested, and the binding [1] was “binds” and the binding [2] was “binds”.
In the case of SMAD3 (from UniProt P84022 1-425), the binding [1] was “binds” and the binding [2] was “binds”.
In the case of SMAD4 (from UniProt Q13485 1-552), the binding [1] was “no binding”.
“untagged HPV8 E6 (U2OS) (from UniProt P06428 1-155)” was tested, and the binding (FLAG-tagged SMAD2) was “binds” and the binding (FLAG-tagged SMAD3) was “binds”.
